According to PubChem BioAssay AID2451 (National Center for Advancing Translational Sciences (NCATS), 2010):
The campaign covered roughly 290,000 compounds. About 2,100 (0.72%) were called active. Inconclusive results, whose numbers are uncertain, are shown with a selection of clear calls. The call rests on the fitted dose curve; in most records, active means well fitted inhibition curve with a large enough effect; inconclusive means small, poorly fitted or top-dose-only effect, or effect the other way; inactive means flat fitted curve, though single readings scatter. Potencies of inconclusive entries are doubtful fits and often do not repeat.

Molecular target: Fructose-bisphosphate aldolase (Giardia intestinalis (strain ATCC 50803 / WB clone C6)) (UniProt A8B2U2)
Experiment: qHTS Assay for Inhibitors of Fructose-1,6-bisphosphate Aldolase from Giardia Lamblia; further: nearly all actives have a fitted effect of over 55% in size
Settings: purified Giardia FBPA; series mostly up to 59.6 µM
In short: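 40 nM FBPA preincubated 10 min at RT with compound (up to 57.5 uM final), then substrate plus GAPDH/TPI/NAD/arsenate coupling and diaphorase/resazurin added. Fluorescence read after 20 min at RT, 525/598 nm.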
Potency means the concentration at half of the fitted maximal effect; tags describe the fitted curve by direction and shape.

Chain of UniProt A8B2U2 (A8B2U2 whole entry, looked up): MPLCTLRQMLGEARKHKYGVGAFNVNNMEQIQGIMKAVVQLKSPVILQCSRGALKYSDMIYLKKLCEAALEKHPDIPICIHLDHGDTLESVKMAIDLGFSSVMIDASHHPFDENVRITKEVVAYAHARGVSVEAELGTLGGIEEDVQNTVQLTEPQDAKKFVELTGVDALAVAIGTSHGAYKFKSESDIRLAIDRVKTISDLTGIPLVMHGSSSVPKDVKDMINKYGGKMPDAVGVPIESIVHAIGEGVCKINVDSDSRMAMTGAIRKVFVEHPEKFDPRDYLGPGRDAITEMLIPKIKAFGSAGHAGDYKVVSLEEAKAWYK

Compound | Potency
Cc1ccccc1N=C1NC(=O)C(CO)(CO)S1 | inconclusive: 28.2 µM [inhibitor, single point]
Cc1oc(-c2ccccc2Cl)nc1Cn1cccc1C1=NC(c2ccccc2)CO1 (stereo not drawn) | inactive
Cc1nc(NS(=O)(=O)c2ccccc2)sc1NC(=O)OCCN(C)C | inconclusive: 15.8 µM [inhibitor, single point]
COc1cccc(CN2CCN(c3ncccn3)CC2)c1OC | inconclusive: 15.8 µM [inhibitor, partial curve]
Cn1c(=O)[nH]c(=O)c2c1[nH]c(=S)n2CCCc1ccccc1 | active: 3.55 µM
O=C(CN1C(=O)CCS(=O)(=O)c2ccccc21)Nc1ccc(Cl)cc1 | inactive
N#Cc1cc(Sc2ccccn2)c([N+](=O)[O-])cc1C#N | inconclusive: 17.7 µM [inhibitor, partial curve]
CC(C)(CN1CCc2ccccc2C1)NS(=O)(=O)c1ccc(Cl)cc1 | inconclusive: 31.5 µM [inhibitor, single point]
COCCCN=Cc1c(-c2ccccc2)[nH]n(-c2nc3ccccc3s2)c1=O | inactive
CCOC(=O)C1C2C=CC3(CN(Cc4ccco4)C(=O)C13)O2 (stereo not drawn) | inactive
O=[N+]([O-])c1cccc(-c2ccc(/C=N/NC(=S)Nc3ccccc3)o2)c1 | inactive
Cc1ccc2c(c1)c1c(n2CC(O)CN2C(=O)CNC2=O)C(=O)CCC1 (stereo not drawn) | inconclusive: 15.8 µM [inhibitor, single point]
O=c1cc(-c2ccc(O)c(O)c2)oc2c(C3O[C@H](CO)[C@@H](O)[C@H](O)[C@H]3O)c(O)cc(O)c12 (stereo partly drawn) | inconclusive: 31.5 µM [inhibitor, single point]
Nc1ncnc2nc(SCC(=O)N3CCN(c4ccccc4)CC3)[nH]c12 | inactive
O=C(NC1=C(Nc2ccc(F)cc2)C(=O)c2ccccc2C1=O)c1ccc(Cl)cc1 | inconclusive: 0.998 µM [inhibitor, full curve]
CCOCCCn1c(SCc2ccccc2)nnc1-c1ccncc1 | inactive
COc1cc(NC(=O)C(C)C)ccc1NC(=O)c1cc2ccccc2o1 | inactive
O=C1C(Nc2ccccc2)=CC(=O)c2ncccc21 | inactive
Cc1ccsc1CN(C)C(=O)CCc1nnc(COc2ccccc2)o1 | inactive
N#C/C(=C(/O)COC(=O)c1cccnc1Cl)c1nc2ccccc2[nH]1 | active: 17.7 µM
COc1cccc(C(Nc2ccccn2)c2oc(CO)cc(=O)c2O)c1 (stereo not drawn) | inconclusive: 19.9 µM [inhibitor, partial curve]
Cn1cc(CN2CCN(c3ccccc3)CC2)c2ccccc21 | inactive
CC(C)NS(=O)(=O)c1ccc(CCC(=O)N2CCC(C(N)=O)CC2)cc1 | inconclusive: 15.8 µM [inhibitor, partial curve]
CCCCN(CC)Cc1ccc(CNC(=S)Nc2cccc(F)c2)o1 | inconclusive: 35.4 µM [inhibitor, single point]
CCn1cc(C(=O)O)c(=O)c2cc(F)c(N3CCN(C(=S)NC(=O)c4ccc(F)cc4)CC3)cc21 | inconclusive: 15.8 µM [inhibitor, partial curve]

Compound | Potency
Cc1[nH]n(-c2ccccc2)c(=O)c1C(C[N+](=O)[O-])c1ccccc1Cl (stereo not drawn) | inactive
Nc1ccc(C2(c3ccc(N)cc3)C(=O)Nc3ccccc32)cc1 | inconclusive: 7.06 µM [inhibitor, single point]
COc1ccc(NC(=O)c2nc[nH]c2C(=O)NCC(=O)OC(C)(C)C)cc1 | inconclusive: 56.1 µM [inhibitor, partial curve, poor fit]
COc1ccc(C2C3=C(N=C4SCC(=O)N42)c2ccccc2CC3)cc1OC (stereo not drawn) | inconclusive: 15.8 µM [inhibitor, single point]
CCCn1c(=O)c(C(=O)NNC(=O)c2ccc(Cl)cc2Cl)c(O)c2ccccc21 | inconclusive: 31.6 µM [activator, single point]
COc1ccc(-c2cc3ccccc3n2CC(O)CN2CCCCC2)cc1 (stereo not drawn) | inconclusive: 14.1 µM [inhibitor, partial curve]
CC(=O)N[C@H](c1ccccc1)[C@@]1(C)C[C@@H]1[C@@H](C)C(=O)Nc1ccc2ccccc2c1 | inactive
c1cc(SSc2ccncc2)ccn1 | inconclusive: 25.1 µM [inhibitor, single point]
COc1cc2c(cc1OC)-c1c3c(cc4c1[C@@H](C2)N(C)CC4)OCO3 | inconclusive: 0.5 µM [inhibitor, full curve]
CCOC(=O)c1cnc(-n2[nH]c(C)cc2=O)[nH]c1=O | inconclusive: 12.6 µM [inhibitor, partial curve]
N/C(=N\OC(=O)Cc1ccc(-c2ccccc2)cc1)c1ccccn1 | inactive
O=C1C(=O)N(CCN2CCOCC2)C(c2ccccn2)/C1=C(/O)c1ccccc1 (stereo not drawn) | inconclusive: 15.8 µM [inhibitor, partial curve]
COc1cc(OC)c(CNC2CCCCCC2)cc1Br | inconclusive: 19.9 µM [inhibitor, partial curve]
Cc1ccc(CNC(=O)CO/N=C/c2ccc3c(c2)OCO3)cc1 | inactive
COC(=O)CCCC1=CC2=CC(=O)C(C)(OC(=O)c3cccs3)C(=O)C2=CN1c1cccc(C#N)c1 (stereo not drawn) | inconclusive: 11.2 µM [inhibitor, partial curve]
Cn1c(SCC(=O)Nc2ccc3cn[nH]c3c2)nnc1-c1cnccn1 | inconclusive: 17.7 µM [inhibitor, single point]
NC(=S)NNc1cccc2cccnc12 | inconclusive: 7.92 µM [inhibitor, partial curve]
Cc1ccc(Nc2nc(NCCO)c3ccccc3n2)cc1C | active: 25.1 µM
COc1cc(C(=O)Nc2ccc3c(c2)ncn3C)cc(OC)c1OC | inconclusive: 15.8 µM [inhibitor, partial curve]
COCCn1c(=O)c(-c2cccs2)nc2cnc(Oc3ccc(OC)cc3)nc21 | inconclusive: 15.8 µM [inhibitor, partial curve]
CC1CCN(C(=O)c2ccc(S(=O)(=O)Cc3ccccc3F)c([N+](=O)[O-])c2)CC1 | inactive
c1ccc(-c2ccc(OCCN3CCCC3)cc2)cc1 | inactive
CCOc1cccc(C=Nc2cc(C)cc(C)c2O)c1O | inconclusive: 31.5 µM [inhibitor, single point]
CCOc1cc(CNc2ccc(O)cc2)cc(Br)c1OCc1ccccc1F | inconclusive: 17.7 µM [inhibitor, single point]
CCOc1ccc(-n2c(O)c(N=Nc3c(C)n(C)n(-c4ccccc4)c3=O)c(=O)[nH]c2=O)cc1 | active: 15.8 µM

Compound | Potency
Cc1ccc(C2C(C#N)=C(N)Oc3c2oc(CO)cc3=O)o1 (stereo not drawn) | inconclusive: 14.1 µM [inhibitor, partial curve]
CCCC(=O)OCCNc1cc(Sc2nc3ccccc3[nH]2)c2nonc2c1[N+](=O)[O-] | inconclusive: 0.316 µM [inhibitor, full curve]
Cc1nc(NC(=S)NC(=O)c2ccccc2)sc1C(=O)N(C)C | inconclusive: 7.92 µM [inhibitor, partial curve]
CCN1CCN(C(c2ccccc2)c2nnnn2Cc2ccc(OC)cc2)CC1 (stereo not drawn) | inactive
COc1ccc2c(c1)CCc1cc(C(=O)N3CCN(c4ccc(N5CCOCC5)nn4)CC3)sc1-2 | inconclusive: 2.23 µM [inhibitor, full curve]
CCOc1cc(N2CCOCC2)c(OCC)cc1NC(=O)Cc1ccccc1OC | inconclusive: 15.8 µM [inhibitor, single point]
O=C(O)/C=C/C(=O)Nc1ccc(S(=O)(=O)Nc2nccs2)cc1 | inconclusive: 3.16 µM [inhibitor, full curve]
Cc1ccc(N(CC(=O)NCC2CCCO2)C(=O)CCC(=O)Nc2ccccn2)cc1C (stereo not drawn) | inactive
COc1ccc(CCN(C)CC(O)COc2ccc(C(C)=O)cc2OC)cc1OC (stereo not drawn) | inconclusive: 15.8 µM [inhibitor, partial curve]
CC1CCc2cc(F)ccc2N1C(=O)CSc1nnc(-c2cccs2)n1C (stereo not drawn) | inactive
COc1ccccc1OCCn1nnc2ccccc21 | inactive
COc1cccc(CC(=O)n2nc(N)c3cc4ccc(OC)cc4nc32)c1 | inactive
OC1CCN(Cc2ccc3ccccc3c2)CC1 | inconclusive: 28.2 µM [inhibitor, partial curve]
Cc1ccccc1N1C(S)=C(C#N)C(=O)NC12CCCCC2 | inconclusive: 4.46 µM [inhibitor, full curve]
Cc1ccc(NC(=O)C2(c3cccs3)CCOCC2)cc1C | inactive
CCc1ccc(Nc2n[n+](-c3ccccc3)c(-c3ccc(OCc4ccccc4)cc3)s2)cc1 | inconclusive: 39.8 µM [inhibitor, single point]
O=NNc1nc2ccccc2n1Cc1ccccc1 | inconclusive: 17.8 µM [inhibitor, partial curve]
Cc1ccc(Sc2c(C(=O)Nc3ccc(F)cc3F)c(C(F)(F)F)nn2C)cc1 | inactive
CN1C(=O)C(Cc2ccsc2)C(=O)N(C)C1=O | inconclusive: 17.7 µM [inhibitor, partial curve, poor fit]
COc1ccc(OC)c(Cc2nnc(CCC(=O)N3CCN(C4CCCC4)CC3)o2)c1 | inactive
CC1=CC2(O)OCCN(CCO)C2=CC1=O (stereo not drawn) | inconclusive: 0.397 µM [inhibitor, full curve]
Cn1ncc([N+](=O)[O-])c1C(=O)Nc1ccccc1C(=O)O | inconclusive: 35.5 µM [inhibitor, partial curve]
Cc1cccc(/C=C(\C#N)C(=O)Nc2ccccn2)c1 | inconclusive: 28.2 µM [inhibitor, single point]
